This is an account of results in PMC4336329 (PLoS ONE, 2015).

Among all 310,000 compounds or so, about 2,200 (0.71%) showed an effect of 50% or more. The effect is printed as a negative number. This is one part of the list.

Sequence of human ether-à-go-go-related gene (hERG) potassium channel (Q12809 whole entry, looked up): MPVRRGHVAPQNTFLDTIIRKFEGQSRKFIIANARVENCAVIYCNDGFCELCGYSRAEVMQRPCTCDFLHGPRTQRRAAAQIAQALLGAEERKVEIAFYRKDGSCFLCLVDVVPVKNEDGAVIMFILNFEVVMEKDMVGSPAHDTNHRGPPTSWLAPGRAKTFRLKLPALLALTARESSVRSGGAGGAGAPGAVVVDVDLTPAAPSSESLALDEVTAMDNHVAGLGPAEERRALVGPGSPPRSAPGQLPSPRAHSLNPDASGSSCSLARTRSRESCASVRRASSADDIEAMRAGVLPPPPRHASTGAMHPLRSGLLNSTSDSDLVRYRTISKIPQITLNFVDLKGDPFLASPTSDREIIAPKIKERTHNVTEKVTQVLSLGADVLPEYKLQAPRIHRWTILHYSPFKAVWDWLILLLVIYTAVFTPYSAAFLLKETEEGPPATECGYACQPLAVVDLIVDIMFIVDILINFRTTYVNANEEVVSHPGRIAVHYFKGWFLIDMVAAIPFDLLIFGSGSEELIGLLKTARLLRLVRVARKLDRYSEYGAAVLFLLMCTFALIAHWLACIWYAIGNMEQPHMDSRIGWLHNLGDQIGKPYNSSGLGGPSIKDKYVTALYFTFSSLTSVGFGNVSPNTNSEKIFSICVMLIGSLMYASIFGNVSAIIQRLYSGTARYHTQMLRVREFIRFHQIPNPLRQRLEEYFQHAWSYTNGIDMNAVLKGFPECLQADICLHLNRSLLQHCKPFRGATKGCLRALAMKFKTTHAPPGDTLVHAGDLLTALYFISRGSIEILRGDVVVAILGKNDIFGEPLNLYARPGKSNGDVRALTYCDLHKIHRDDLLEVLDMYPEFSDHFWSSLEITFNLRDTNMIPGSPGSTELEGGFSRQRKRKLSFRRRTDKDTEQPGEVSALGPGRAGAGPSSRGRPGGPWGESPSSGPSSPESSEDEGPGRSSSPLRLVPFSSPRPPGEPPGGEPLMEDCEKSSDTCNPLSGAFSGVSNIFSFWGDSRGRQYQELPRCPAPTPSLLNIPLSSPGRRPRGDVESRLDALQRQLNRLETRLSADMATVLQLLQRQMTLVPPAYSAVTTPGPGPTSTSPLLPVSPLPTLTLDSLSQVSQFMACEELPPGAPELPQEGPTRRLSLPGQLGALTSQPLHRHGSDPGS

This assay concerns the target human ether-à-go-go-related gene (hERG) potassium channel (human, UniProt Q12809). The experiment in a line: primary screen, population patch clamp on CHO cells stably expressing hERG.
Turning to `O=C(Nc1ccc(N2CCOCC2)c(Cl)c1)c1ccccc1Cl`, the “hERG current change (%, negative = inhibition) at 1uM” value is 18.1%. Turning to `CCCCP(=O)(CCCC)CCP(=O)(c1ccccc1)c1ccccc1`, the “hERG current change (%, negative = inhibition) at 1uM” value is recorded as 8.94%.

As to `CC(=O)N1CCC(N(CCCOC(C)C)C(=O)Nc2ccc(Cl)cc2)CC1`, the “hERG current change (%, negative = inhibition) at 1uM” value is 2.48%. To `COc1ccccc1NC(=O)CSc1nnc(Cn2c(=O)sc3ccccc32)n1C` belongs -19%. In the case of `COc1ccc(C2=C(C#N)C(=O)OC2)cc1` it was -1.67%; in that of `CC(C)C(NC(=O)c1ccccc1F)C(=O)OCC(=O)c1ccc(F)cc1` (stereo not shown), 4.29%. To `CCC1=Nc2cc(C(=O)NCCN3CCOCC3)ccc2Sc2ccc(C)cc21` belongs -14.1%; to `Cc1ccc(S(=O)(=O)N2CCC(C(=O)N[C@H](C(=O)NC3CCS(=O)(=O)C3)C(C)C)CC2)cc1` (stereo partly shown), 16.5%.

For the compound `COC(=O)c1cc(=O)n2c(-c3ccc(OC)cc3)csc2n1`, the “hERG current change (%, negative = inhibition) at 1uM” value came out at 9.02%. In the case of `COC(=O)c1ccccc1S(=O)(=O)Nc1ccc2cn[nH]c2c1` it was 11.7%; in that of `CCOC(=O)c1ccc(NC(=S)N2CCSC2c2ccc(Cl)cc2)cc1` (stereo not shown), 14.5%.

For the compound `CN(C(=O)Nc1cnccc1C(F)(F)F)C1CCCCC1`, the “hERG current change (%, negative = inhibition) at 1uM” value stood at 20.4%. In the case of `Cc1nnc(SCc2cc(=O)oc3cc(O)ccc23)n1Cc1ccccc1`, the “hERG current change (%, negative = inhibition) at 1uM” value is listed as -0.332%.

Take `CC(C)N(C(=O)CN1CCC(c2nc3ccccc3[nH]2)CC1)C(C)C`: the “hERG current change (%, negative = inhibition) at 1uM” value is on record as 6.76%. In the case of `O=[N+]([O-])c1ccc(N2CCOCC2)cc1N1CCCCC1` it was 6.72%. In the case of `COCCNCCCCOc1ccc(C)cc1[N+](=O)[O-].O=C(O)C(=O)O` it was 1.99%. To `COCCCN1CN(S(=O)(=O)c2ccc(C)cc2C)c2nc3ccccc3nc21` belongs 17.3%; to `COc1cc(OC)c(C(=O)O/N=C(\N)c2ccc(C)cc2)cc1OC`, 0.289%. As for `CCCC1=NN(C(=O)Cc2ccc([N+](=O)[O-])cc2)C(O)(C(F)(F)F)C1` (stereo not shown), the “hERG current change (%, negative = inhibition) at 1uM” value worked out at 17.2%. To `CCOC(=O)Cc1csc(NC(=S)NC(=O)c2cc(OC)cc(OC)c2)n1` belongs 8.5%; to `C=CCn1cccc(C(=O)Nc2ccc(C)cc2)c1=O`, -0.584%; to `CN1CCN(C(=O)CCc2nc(-c3ccc(Cl)cc3)no2)CC1`, 7.34%. In the case of `O=C(CCC(=O)c1ccc(Br)cc1)Nc1cccc(C(F)(F)F)c1` it was 11.8%; in that of `COc1ccc(-c2nn3c(-c4ccccn4)nnc3s2)cc1OC`, 18.3%.

Regarding `Cc1cccc(Nc2ncnc3ccccc23)c1.Cl`, the “hERG current change (%, negative = inhibition) at 1uM” value was 8.31%.
